Publication PMC4336329 (PLoS ONE, 2015)
About 2,200 (0.71%) of roughly 310,000 compounds showed an effect of 50% or more. The effect is printed as a negative number. The list shows a part of the results.

molecular target: human ether-à-go-go-related gene (hERG) potassium channel (human, UniProt Q12809); test: primary screen, population patch clamp on CHO cells stably expressing hERG
Sequence (Q12809 whole entry, looked up): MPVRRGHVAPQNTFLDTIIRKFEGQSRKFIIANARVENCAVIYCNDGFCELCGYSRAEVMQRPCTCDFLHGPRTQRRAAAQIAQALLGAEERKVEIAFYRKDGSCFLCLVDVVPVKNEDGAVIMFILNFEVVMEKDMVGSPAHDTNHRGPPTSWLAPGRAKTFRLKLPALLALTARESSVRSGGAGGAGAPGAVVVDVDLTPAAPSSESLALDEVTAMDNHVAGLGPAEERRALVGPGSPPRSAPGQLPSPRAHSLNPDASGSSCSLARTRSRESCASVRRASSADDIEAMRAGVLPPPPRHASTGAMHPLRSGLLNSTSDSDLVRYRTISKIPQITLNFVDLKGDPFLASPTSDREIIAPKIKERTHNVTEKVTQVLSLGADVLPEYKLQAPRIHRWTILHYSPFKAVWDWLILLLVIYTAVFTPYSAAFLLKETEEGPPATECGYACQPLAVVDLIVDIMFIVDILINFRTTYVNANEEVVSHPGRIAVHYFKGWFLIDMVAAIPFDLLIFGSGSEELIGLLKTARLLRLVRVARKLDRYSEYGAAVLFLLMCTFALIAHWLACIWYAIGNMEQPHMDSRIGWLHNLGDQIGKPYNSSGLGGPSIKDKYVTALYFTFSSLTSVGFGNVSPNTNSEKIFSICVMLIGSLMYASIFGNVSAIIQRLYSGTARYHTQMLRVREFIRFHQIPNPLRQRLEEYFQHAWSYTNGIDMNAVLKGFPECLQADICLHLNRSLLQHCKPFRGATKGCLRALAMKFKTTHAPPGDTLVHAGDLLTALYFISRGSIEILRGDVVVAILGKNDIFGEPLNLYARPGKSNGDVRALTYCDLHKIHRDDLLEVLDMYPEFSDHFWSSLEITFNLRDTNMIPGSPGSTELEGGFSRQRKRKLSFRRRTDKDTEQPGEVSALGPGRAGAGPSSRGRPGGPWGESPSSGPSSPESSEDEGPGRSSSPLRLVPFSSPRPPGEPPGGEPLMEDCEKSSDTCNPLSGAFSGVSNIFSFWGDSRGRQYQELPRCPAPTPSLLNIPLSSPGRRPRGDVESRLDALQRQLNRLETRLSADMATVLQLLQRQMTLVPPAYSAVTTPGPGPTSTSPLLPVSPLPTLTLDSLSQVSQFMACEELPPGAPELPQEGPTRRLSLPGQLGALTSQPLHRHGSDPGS

How did the “hERG current change (%, negative = inhibition) at 1uM” value turn out when Fc1ccc(Nc2nc(-c3ccncc3)cs2)cc1 was run?
The value was 5.83%.

With O=C(O)c1ccc(N/N=C/c2ccc3ncccc3c2)cc1 as the molecule, how does the “hERG current change (%, negative = inhibition) at 1uM” value read?
The value was 10.8%.

For CCNC(=O)/C(=C\C=C\c1ccccc1)NC(=O)c1ccc(Br)o1, which “hERG current change (%, negative = inhibition) at 1uM” value is on record?
The value was 6.46%.

Which “hERG current change (%, negative = inhibition) at 1uM” value does the source give for O=C1[C@@H]2[C@H]3CC[C@H](C3)[C@@H]2C(=O)N1O here?
The value was 18.4%.

With Cc1cc(N2CCOCC2)ccc1/C=C1\C(=O)NC(=O)N(c2ccccc2)C1=O as the molecule, how does the “hERG current change (%, negative = inhibition) at 1uM” value read?
Its value is 13.8%.

Which “hERG current change (%, negative = inhibition) at 1uM” value does the source give for COc1ccccc1C(=O)Nc1ccc(Nc2ccccc2)cc1 here?
Its value is 14.8%.

How did the “hERG current change (%, negative = inhibition) at 1uM” value turn out when COCCNC(=S)N1CCN(c2nc(-c3ccc(Cl)cc3)cs2)CC1 was run?
Its value is 9.43%.

For CCC(C)NCCCOc1cc(Cl)ccc1Cl.O=C(O)C(=O)O (stereo not drawn), which “hERG current change (%, negative = inhibition) at 1uM” value is on record?
Its value is -9.91%.

COc1ccccc1NC(=O)CC1S/C(=N/N=C(\C)C2CCCCC2)NC1=O (stereo not drawn) was tested. Which “hERG current change (%, negative = inhibition) at 1uM” value did it give?
Its value is 12.6%.

CN(C)c1ccc(-c2cc([C@H]3[C@@H]4C=CCC[C@@]4(C)C(=O)N3Cc3ccccc3)ccc2F)cc1 was tested. Which “hERG current change (%, negative = inhibition) at 1uM” value did it give?
The value was 13.4%.

COc1cc2cc(CN(Cc3cccs3)C(=S)Nc3ccccc3)c(=O)[nH]c2cc1OC was tested. Which “hERG current change (%, negative = inhibition) at 1uM” value did it give?
Its value is 0.55%.

How did the “hERG current change (%, negative = inhibition) at 1uM” value turn out when COc1cc2c(cc1OC)CN(Cc1cc(OC)c3c(c1)OCO3)CC2 was run?
Its value is 18.4%.

How did the “hERG current change (%, negative = inhibition) at 1uM” value turn out when [N-]=[N+]=NCc1cn2cccnc2n1 was run?
The value was 21%.

For Cc1ccc(NC(=O)NC(=O)CN2C(=O)NC3(CCc4ccccc43)C2=O)c(C)c1 (stereo not drawn), which “hERG current change (%, negative = inhibition) at 1uM” value is on record?
Its value is 4.35%.

For CC(=O)N1CCN(C(=O)c2cccc(NS(=O)(=O)c3ccc(Br)cc3)c2)CC1, which “hERG current change (%, negative = inhibition) at 1uM” value is on record?
Its value is 4.77%.

O=C(Nc1ccc(C(=O)O)cc1)/C(=C/c1ccc2c(c1)OCO2)NC(=O)c1cccc(Br)c1 was tested. Which “hERG current change (%, negative = inhibition) at 1uM” value did it give?
The value was 7.15%.

How did the “hERG current change (%, negative = inhibition) at 1uM” value turn out when O=C(O)c1nnn(-c2cccc(C(F)(F)F)c2)c1-c1ccccc1 was run?
The value was 13.8%.

How did the “hERG current change (%, negative = inhibition) at 1uM” value turn out when Cc1ccc(NC(=O)CCc2nnc3ccc(N4CCC5(CC4)OCCO5)nn23)nc1 was run?
Its value is 9.06%.

How did the “hERG current change (%, negative = inhibition) at 1uM” value turn out when COC(=O)c1sc(N2CCN(Cc3ccccc3)CC2)nc1N was run?
The value was 16.4%.

How did the “hERG current change (%, negative = inhibition) at 1uM” value turn out when Cc1ccnc(NC(=O)C(C)N2C(=O)c3ccccc3S2(=O)=O)c1 (stereo not drawn) was run?
Its value is 9.85%.

Which “hERG current change (%, negative = inhibition) at 1uM” value does the source give for CC1(C)C2CCC(C2)C1(C)NC(=O)CN1CCN(Cc2ccccc2)CC1.Cl (stereo not drawn) here?
Its value is 15%.

Which “hERG current change (%, negative = inhibition) at 1uM” value does the source give for Cn1c(=O)[nH]c(=O)c2c1nc(SCCO)n2CCCc1ccccc1 here?
The value was 5.4%.

How did the “hERG current change (%, negative = inhibition) at 1uM” value turn out when COc1ccc(NC(C)=O)cc1NC(=O)CN1CCN(C2c3ccccc3-c3ccccc32)CC1 was run?
The value was 13.5%.

O=C(NCCc1ccccc1)C1CCCN(c2nc3ccccc3s2)C1 (stereo not drawn) was tested. Which “hERG current change (%, negative = inhibition) at 1uM” value did it give?
Its value is 8.79%.

How did the “hERG current change (%, negative = inhibition) at 1uM” value turn out when COc1nc(NCC(C)C)nc(Oc2ccc(OCc3ccccc3)nn2)n1 was run?
Its value is 2.77%.

With Cc1ccc(NS(=O)(=O)c2ccc(/C=C/C(=O)O)cc2)cc1Cl as the molecule, how does the “hERG current change (%, negative = inhibition) at 1uM” value read?
Its value is 16.3%.

O=C(C(=O)N1CC=C(c2ccccc2)CC1)c1c[nH]c2ccccc12 was tested. Which “hERG current change (%, negative = inhibition) at 1uM” value did it give?
The value was 6.67%.

Which “hERG current change (%, negative = inhibition) at 1uM” value does the source give for COc1cccc(/C=C(\C)C(=O)c2c(C)cc(C)[nH]c2=O)c1OC here?
Its value is 11.4%.

Which “hERG current change (%, negative = inhibition) at 1uM” value does the source give for COc1cc2nc(SCC(=O)NCCc3ccccc3)n(Cc3ccco3)c(=O)c2cc1OC here?
The value was 7.18%.

O=C(Cc1cccc(C(F)(F)F)c1)Nc1cc(S(=O)(=O)N2CCOCC2)ccc1N1CCCC1 was tested. Which “hERG current change (%, negative = inhibition) at 1uM” value did it give?
The value was 3.37%.

How did the “hERG current change (%, negative = inhibition) at 1uM” value turn out when COc1cc(/C=C2\SC(=Nc3ccc(O)cc3)NC2=O)cc(OC)c1OC was run?
The value was 13.5%.

How did the “hERG current change (%, negative = inhibition) at 1uM” value turn out when COc1cccc(CCNC(=O)c2ccc(OC)c(OC3CCN(C(C)C)CC3)c2)c1 was run?
Its value is -2.35%.

With COC(=O)CSc1nnc(-c2cccc(NC(=O)c3ccc(C)cc3)c2)n1C as the molecule, how does the “hERG current change (%, negative = inhibition) at 1uM” value read?
The value was -6.35%.

Which “hERG current change (%, negative = inhibition) at 1uM” value does the source give for COc1ccccc1C1NC(=O)c2ccccc2O1 (stereo not drawn) here?
The value was 4.52%.

With CCc1ccc(N(CC(=O)O)S(=O)(=O)c2c(C)noc2C)cc1 as the molecule, how does the “hERG current change (%, negative = inhibition) at 1uM” value read?
The value was 12.8%.

Which “hERG current change (%, negative = inhibition) at 1uM” value does the source give for NS(=O)(=O)c1ccc(NC(=O)c2cccc(N3C(=O)c4ccccc4C3=O)c2)cc1 here?
The value was 14.3%.

For N#CC1(Cc2ccccc2)c2ccccc2C=CN1C(=O)c1ccccc1 (stereo not drawn), which “hERG current change (%, negative = inhibition) at 1uM” value is on record?
The value was 5.3%.

COc1ccccc1C(=O)Nc1ccc2c(c1)nc(CN1CCCCC1)n2C was tested. Which “hERG current change (%, negative = inhibition) at 1uM” value did it give?
The value was -1.16%.

For COC(=O)C1=C(c2cccc(OCc3ccccc3)c2)C[C@@H]2CC[C@H]1N2C(=O)NCc1ccc2[nH]ccc2c1, which “hERG current change (%, negative = inhibition) at 1uM” value is on record?
Its value is 10.9%.

Cc1cccc(N(Cc2ccccc2)C(=O)CSC(C)C(=O)Nc2cc(C)on2)c1 (stereo not drawn) was tested. Which “hERG current change (%, negative = inhibition) at 1uM” value did it give?
The value was 15.7%.

For CCO.C[C@H]1c2cccc(O)c2C(O)=C2C(=O)[C@]3(O)C(O)=C(C(N)=O)C(=O)[C@@H](N(C)C)C3[C@@H](O)C21.Cl.O (stereo partly drawn), which “hERG current change (%, negative = inhibition) at 1uM” value is on record?
Its value is 13.3%.

Which “hERG current change (%, negative = inhibition) at 1uM” value does the source give for CCNC(=S)NNC(=O)C1CCCCC1 here?
The value was 5.71%.
